Results on 46 compounds are retold here after paper PMC4336329 (PLoS ONE, 2015).

Screen size: about 310,000 compounds; about 2,200 (0.71%) showed an effect of 50% or more. Effects have a minus sign here. Some of the results follow.

The target of the test is human ether-à-go-go-related gene (hERG) potassium channel (human, UniProt Q12809). The test can be described thus: primary screen, population patch clamp on CHO cells stably expressing hERG.
human ether-à-go-go-related gene (hERG) potassium channel, sequence (Q12809 whole entry, looked up): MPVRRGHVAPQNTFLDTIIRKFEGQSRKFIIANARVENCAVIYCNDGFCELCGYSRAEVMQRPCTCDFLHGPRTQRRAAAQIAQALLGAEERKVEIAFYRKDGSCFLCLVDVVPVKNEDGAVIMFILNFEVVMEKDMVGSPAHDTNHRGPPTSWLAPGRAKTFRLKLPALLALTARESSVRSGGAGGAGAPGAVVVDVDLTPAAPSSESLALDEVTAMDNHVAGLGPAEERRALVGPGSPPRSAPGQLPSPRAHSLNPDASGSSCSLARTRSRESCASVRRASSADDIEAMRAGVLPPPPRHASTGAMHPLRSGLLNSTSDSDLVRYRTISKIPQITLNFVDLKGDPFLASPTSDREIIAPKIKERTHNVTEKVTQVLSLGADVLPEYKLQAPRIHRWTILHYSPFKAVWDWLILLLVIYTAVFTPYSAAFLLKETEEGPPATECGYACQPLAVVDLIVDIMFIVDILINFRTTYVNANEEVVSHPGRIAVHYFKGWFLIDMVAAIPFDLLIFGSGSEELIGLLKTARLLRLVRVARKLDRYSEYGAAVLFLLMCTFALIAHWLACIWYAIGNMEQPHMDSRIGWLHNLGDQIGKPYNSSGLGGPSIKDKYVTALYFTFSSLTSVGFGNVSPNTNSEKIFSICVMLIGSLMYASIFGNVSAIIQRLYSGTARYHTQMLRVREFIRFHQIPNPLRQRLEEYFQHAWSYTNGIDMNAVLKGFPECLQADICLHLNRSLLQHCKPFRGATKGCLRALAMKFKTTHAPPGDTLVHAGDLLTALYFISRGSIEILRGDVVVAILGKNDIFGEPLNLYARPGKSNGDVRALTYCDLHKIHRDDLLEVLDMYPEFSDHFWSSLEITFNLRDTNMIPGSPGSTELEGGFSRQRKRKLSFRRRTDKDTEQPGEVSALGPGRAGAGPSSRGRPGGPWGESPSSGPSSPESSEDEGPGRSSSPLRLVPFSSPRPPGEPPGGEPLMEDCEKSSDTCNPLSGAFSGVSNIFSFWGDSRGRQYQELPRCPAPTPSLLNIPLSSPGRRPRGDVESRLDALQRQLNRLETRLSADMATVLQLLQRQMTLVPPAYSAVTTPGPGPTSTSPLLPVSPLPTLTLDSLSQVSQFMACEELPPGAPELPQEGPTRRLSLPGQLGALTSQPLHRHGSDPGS
Turning to `CCc1ccc(Nc2ncnc3nc[nH]c23)cc1`, the “hERG current change (%, negative = inhibition) at 1uM” value was -4.02%. Take `CCCN(CCC)C(=O)Nc1ccc(F)cc1F`: the “hERG current change (%, negative = inhibition) at 1uM” value is recorded as 16.7%. With `O=C(Nn1c(-c2ccc(Br)cc2)nc2ccccc2c1=O)c1cccnc1`, the “hERG current change (%, negative = inhibition) at 1uM” value worked out at 13.9%. Take `CN1CCC(NC(=O)c2ccncc2)CC1`: the “hERG current change (%, negative = inhibition) at 1uM” value was determined as 4.86%.

For the compound `C1=CC2CC1CC2CNCc1ccco1.Cl` (stereo not shown), the “hERG current change (%, negative = inhibition) at 1uM” value came out at 3.17%.

In the case of `COC(=O)c1ccccc1NC(=O)CSc1nnc(-c2cccnc2)o1`, the “hERG current change (%, negative = inhibition) at 1uM” value is recorded as -3.81%. For the compound `O=S(Cc1ccccc1)CC(O)(c1ccccc1)c1ccccc1` (stereo not shown), the “hERG current change (%, negative = inhibition) at 1uM” value was -0.0528%. For `COC(=O)c1ccccc1NC(=O)CN(C)S(=O)(=O)c1cc(C)ccc1OC` the value was 9.94%; for `Nc1ccccc1-c1nnc2n1CCCCC2`, 16.7%. Turning to `CC1=NN(c2ccc(C)cc2C)C(=O)C1C(c1ccccc1)C1C(=O)N(c2ccc(C)cc2C)N=C1C` (stereo not shown), the “hERG current change (%, negative = inhibition) at 1uM” value is listed as -0.731%. In the case of `CCOC(=O)c1cc(-c2ccc(C)cc2)n(CCC(=O)N2CCN(c3ccccn3)CC2)c1C`, the “hERG current change (%, negative = inhibition) at 1uM” value is -17%. As for `Cc1cc(C(F)(F)F)nn1CC(=O)NCC1CCCO1` (stereo not shown), the “hERG current change (%, negative = inhibition) at 1uM” value is recorded as 7.49%. For the compound `O=C(O)c1cccc(CSc2nnc(Cc3ccccc3)o2)c1`, the “hERG current change (%, negative = inhibition) at 1uM” value turned out to be 1.01%. Consider `NNC(=O)c1oc2nc(-c3cccs3)cc(-c3ccco3)c2c1N`, for which the “hERG current change (%, negative = inhibition) at 1uM” value is on record as 14.1%. Turning to `CC(C)(C)c1ccc(NC(=O)CC2(C(F)(F)F)OCCO2)cc1`, the “hERG current change (%, negative = inhibition) at 1uM” value is on record as 6.77%. Take `CCOc1ccc(S(=O)(=O)N2CCCC(C(=O)N3CCN(CC)CC3)C2)cc1Cl` (stereo not shown): the “hERG current change (%, negative = inhibition) at 1uM” value worked out at 13.4%. On to `O=C(CN1CCCCC1)NNC(=O)c1cccc(Br)c1`, for which the “hERG current change (%, negative = inhibition) at 1uM” value was determined as 14.5%. For `Cc1ccccc1OCC(=O)NCCS(=O)(=O)N1CCN(c2ccc(F)cc2)CC1` the value was -11.7%; for `CC1CN(C(=O)/C=C/c2ccccc2Cl)CC(C)O1` (stereo not shown), 18.6%; for `COC(=O)c1nn(-c2ccccc2)c(Sc2ccc(Cl)cc2)c1/C=N/O`, 4.74%. For `Cc1cc(C)n(CCC(=O)N2CCN(S(=O)(=O)c3ccc(C)c(C)c3)CC2)n1` the value was 8.96%. For `Cc1ccc(C(=O)NC(=S)Nc2cccc3nsnc23)cc1` the value was 7.03%; for `COC(=O)c1[nH]c2ccc(Br)cc2c1NC(=O)CN1CCN(C2CCCCC2)CC1`, -85.1%. As for `O=C(NCc1ccc2c(c1)OCO2)C1CCCN1S(=O)(=O)c1ccc(Cl)cc1` (stereo not shown), the “hERG current change (%, negative = inhibition) at 1uM” value is -38.7%.

For the compound `O=C(c1ccc(SCc2ccco2)c([N+](=O)[O-])c1)N1CCOCC1`, the “hERG current change (%, negative = inhibition) at 1uM” value was 8.52%.

On to `COc1ccc(CC(=O)Nc2cc(C)ccc2O)cc1OC`, for which the “hERG current change (%, negative = inhibition) at 1uM” value was 13.9%. As to `O=C(OCCOc1ccc(Br)cc1)c1ccc(Cl)c(S(=O)(=O)N2CCOCC2)c1`, the “hERG current change (%, negative = inhibition) at 1uM” value was determined as 4.88%. With `O=C(NC1CC2CCCC(C1)N2CC(=O)N1CCCc2ccccc21)C1CCCCC1` (stereo not shown), the “hERG current change (%, negative = inhibition) at 1uM” value is recorded as -23.3%. In the case of `COC(=O)c1ccc(/C=C/C(=O)c2ccc(OC)cc2)cc1`, the “hERG current change (%, negative = inhibition) at 1uM” value came out at 11.3%. For `CCN(CC(=O)NCc1ccc(Cl)cc1)C(=O)c1ccc2cc(OC)ccc2c1` the value was 7.72%. For `COc1ccc(Cc2nnc(N/N=C/c3ccc(Br)cc3)[nH]c2=O)cc1OC` the value was 13.9%; for `Cn1c(=O)c2cc(S(=O)(=O)NCCC(=O)Nc3ccc(Cl)cc3)ccc2n(C)c1=O`, -5.38%; for `CCOCCCN(C(=O)Nc1ccc(CC)cc1)C1CCN(C(C)=O)CC1`, -5.87%. Regarding `O=C(Cc1coc2cc3c(cc12)CCC3)NC1CCCCCCC1`, the “hERG current change (%, negative = inhibition) at 1uM” value came out at 0.112%. With `CCCCn1c(=O)c(C(=O)Nc2ccccn2)c(O)c2ccccc21`, the “hERG current change (%, negative = inhibition) at 1uM” value is on record as 6.62%. For the compound `CCC(=O)N(CCc1ccccc1)Cc1cc2cc(OC)ccc2[nH]c1=O`, the “hERG current change (%, negative = inhibition) at 1uM” value is -3.89%. `CCN(CC)S(=O)(=O)c1cc(NC(=O)COC(=O)C2CCC2)ccc1C`: the “hERG current change (%, negative = inhibition) at 1uM” value stood at 8.13%. For `Cc1cc(OC(=O)c2ccccc2[N+](=O)[O-])c([N+](=O)[O-])c(=O)[nH]1` the value was 10%; for `CC(C(=O)OCC(=O)N1CCN(c2ccccc2)CC1)N1C(=O)c2ccccc2C1=O` (stereo not shown), 15.1%. For `O=C(Nc1ccc(Cl)cn1)Nc1cccs1` the value was -1.12%; for `CCCNC(=O)c1ccc(Cl)c(Cl)c1`, 4.26%; for `Cc1cccc(C)c1Oc1nc(-c2ccccc2)ncc1S(=O)(=O)c1ccccc1`, 8.29%.

Consider `CC(=O)Oc1ccc2c(=O)c(Oc3ccccc3[N+](=O)[O-])coc2c1`, for which the “hERG current change (%, negative = inhibition) at 1uM” value was 11.7%. As for `c1ccc(Oc2ccc3ccccc3n2)cc1`, the “hERG current change (%, negative = inhibition) at 1uM” value was -2.37%. On to `COc1ccc(-c2csc(/N=C/N(C)C)n2)cc1OC`, for which the “hERG current change (%, negative = inhibition) at 1uM” value is -0.928%. Turning to `COc1ccc(-n2nc3c(c2NC(=O)c2ccc(S(=O)(=O)N4CCOCC4)cc2)CS(=O)C3)cc1` (stereo not shown), the “hERG current change (%, negative = inhibition) at 1uM” value is reported as 6.33%.
